Screen size: about 390,000 compounds; about 930 (0.24%) were called active. Inconclusive results, whose numbers are uncertain, are shown with a selection of clear calls. Calls come from the whole dose curve; as a rule, active = well fitted activation curve with a large enough effect; inconclusive = small, poorly fitted or top-dose-only effect; inactive = no such curve, though single readings can be large or run the other way. Potencies of inconclusive entries are doubtful fits and often do not repeat.
Assay: qHTS for Suppressors of FUS Proteinopathy: Primary screen using FUS-linked yeast assay; note: nearly all actives have a fitted effect of over 55% in size;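 for growth rescue (activation): plate controls were DMSO vehicle for no effect and reference control for full effect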
Conditions: S. cerevisiae FUS-expressing, OD600, 24 h; Potency: growth rescue; growth rescue (activation): at 76.6 µM (top of the series)
Summary of the method: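 Toxicity suppression screen in FUS-yeast. Cells induced with 2% galactose, starting OD 0.005, treated 24hr at 30C with compounds at multiple final concentrations; growth by OD600.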
Potency is the fitted concentration of half-maximal effect; tags give direction and shape of the fitted curve.

Row | Structure (SMILES) | Potency | growth rescue (activation)
1 | COc1ccc(C(=O)/C=C(\Nc2ccc(F)cc2)c2ccc(OC)cc2OC)c(OC)c1 | inconclusive: 22.4 µM [activator, partial curve, poor fit] | –
2 | CCOC(=O)C1=NNC2(c3ccc(Cl)cc3)C(=O)N(c3cc(C)cc(C)c3)C(=O)C12 (centres undefined) | inconclusive: 50.1 µM [activator, partial curve, poor fit] | –
3 | Cc1sc2nc(CN3CCOCC3)nc(NS(=O)(=O)c3cc(Cl)ccc3Cl)c2c1C | inconclusive: 35.5 µM [activator, single point] | –
4 | COC(=O)c1ccccc1NC(=O)CN1C(=O)CSC1=O | – | inconclusive: 59.4% [activator]
5 | Cn1c(N)c(C(=O)COC(=O)c2cc(C3CC3)nc3ccccc23)c(=O)n(Cc2ccccc2)c1=O | inconclusive: 20 µM [activator, single point] | –
6 | Cc1ccccc1Cn1c(-c2cccs2)nc2ccccc21 | inactive | –
7 | CCc1nc2ccc(C(=O)NCCc3c[nH]c4ccccc34)cn2c1N(C)CCCc1ccccc1 | inconclusive: 28.2 µM [activator, single point] | –
8 | COc1ccccc1CCNC(=O)Cn1ccc2cc(S(=O)(=O)N3CCCCC3)ccc21 | inconclusive: 28.2 µM [activator, single point] | –
9 | Cc1ccc(S(=O)(=O)N2CCC(c3nc4c(nnn4Cc4ccccc4)c(=O)[nH]3)CC2)cc1 | inconclusive: 44.7 µM [activator, single point] | –
10 | O=C(C[C@H]1C/C=C\C[C@H](NC(=O)OCC2c3ccccc3-c3ccccc32)C(=O)O[C@H](c2ccccc2)CNC1=O)N[C@H](CO)Cc1ccccc1 | inconclusive: 25.1 µM [activator, single point] | –
11 | Nc1nonc1-n1nnc(C(=O)N/N=C/c2cccnc2)c1-c1cccs1 | inactive | –
12 | CCn1cc2nc(SCC(=O)Nc3cc(OC)ccc3OC)n(Cc3ccc(Cl)cc3)c(=O)c2n1 | inconclusive: 10 µM [activator, partial curve] | –
13 | COc1ccc(NC(=O)c2cc(-c3ccccc3)nc3c2cnn3C(C)C)c(OC)c1 | inconclusive: 31.6 µM [activator, single point] | –
14 | O=C(CCCc1nc2ccccc2s1)NCc1ccccc1F | inactive | –
15 | CCC(=O)Nc1cccc(C2=NOC3(C2)C[C@@H](C(N)=O)N(C(=O)CC(c2ccccc2)c2ccccc2)C3)c1 (some centres undefined) | inconclusive: 15.8 µM [activator, partial curve] | –
16 | O=C(Nc1cccnc1)c1ccc([N+](=O)[O-])s1 | inactive | –
17 | Cn1nc(C(C)(C)C)cc1NC(=O)C1(C)CCN1C(=O)C1(c2ccccc2)CC1 (centres undefined) | inactive | –
18 | CCOC(=O)COc1cc(Br)c(/C=N/Nc2ccccc2)cc1OC | inactive | –
19 | CC[C@H](C)Cc1cn([C@@H](CCCN=C(NC(=O)OC(C)(C)C)NC(=O)OC(C)(C)C)C(=O)NCCCCCCCCCCC(=O)N2CCN(C(=O)OC(C)(C)C)CC2)nn1 | inconclusive: 17.8 µM [activator, partial curve, poor fit] | –
20 | Cc1ccc(-n2c(O)c(C=NCc3ccccn3)c3ccccc3c2=O)cc1C | inconclusive: 28.2 µM [activator, single point] | –
21 | Cc1nc2ccn(Cc3ccco3)c(=O)c2cc1C(=O)Nc1ccc(F)cc1 | inactive | –
22 | CCCc1ccc(Oc2cn[nH]c2-c2ccc(O)c(C)c2O)cc1 | inconclusive: 15.8 µM [activator, partial curve, poor fit] | –

Row | Structure (SMILES) | Potency | growth rescue (activation)
23 | CC1C(=O)N2CCCc3cc(S(=O)(=O)N(C)c4ccccc4)cc1c32 (centres undefined) | inconclusive: 44.7 µM [activator, single point] | –
24 | Oc1ccc(/C=N/Nc2ncnc3c2ncn3Cc2ccccc2)cc1O | inconclusive: 25.1 µM [activator, single point] | –
25 | O=[N+]([O-])c1cc([N+](=O)[O-])c(Oc2c(F)ccc(F)c2F)cc1NN1CCCCC1 | inactive | –
26 | O=C(Nc1ccccc1N1CCOCC1)c1ccc([N+](=O)[O-])o1 | inactive | –
27 | COc1ccc(/C=C2/C(=O)ON=C2C)cc1Br | inactive | –
28 | CC(NC(=O)C1CCN(C(=O)Nc2ccccc2)CC1)c1ccccc1 (centres undefined) | inactive | –
29 | O=C(Nc1ccc(Cl)cc1)N1CCC(CN2CCCCCC2)CC1 | inactive | –
30 | Cc1ccc(-c2nnc(SCC(=O)N3CC(C)CC(C)C3)o2)cc1C (centres undefined) | inconclusive: 22.4 µM [activator, partial curve] | –
31 | CCOc1ccc2[nH]c3c(NCCc4ccc(OC)c(OC)c4)ncnc3c2c1 | inconclusive: 25.1 µM [activator, partial curve, poor fit] | –
32 | O=C(NCc1ccccc1)C1Cc2ccccc2CN1C(=O)c1ccco1 (centres undefined) | inconclusive: 14.1 µM [activator, partial curve] | –
33 | COc1ccc(NCc2nnc(SCC(=O)c3ccc(OC)cc3)n2C)cc1 | inconclusive: 39.8 µM [activator, partial curve, poor fit] | –
34 | CN(C)S(=O)(=O)N1CCN(c2ccccc2Cl)CC1 | inactive | –
35 | O=C(O)CCC(=O)N1N=C(c2c(-c3ccccc3)c3cc(Cl)ccc3[nH]c2=O)CC1c1ccccc1 (centres undefined) | inconclusive: 39.8 µM [activator, single point] | –
36 | CCOC(=O)C1CCN(S(=O)(=O)c2ccc(NC(=O)OC)cc2)CC1 | inactive | –
37 | CC(C)(C)c1ccc(S(=O)(=O)N2CCCC(C(=O)NCCN3CCC(Cc4ccccc4)CC3)C2)cc1 (centres undefined) | inconclusive: 20 µM [activator, partial curve, poor fit] | –
38 | CCOc1ccc(N(C(C)C(=O)NCCSc2ccc(Cl)cc2)S(C)(=O)=O)cc1 (centres undefined) | inconclusive: 15.8 µM [activator, partial curve, poor fit] | –
39 | CCCCCN(C(=O)CCC(=O)OCCOc1ccccc1)c1c(N)n(CCCC)c(=O)[nH]c1=O | inconclusive: 35.5 µM [activator, single point] | –
40 | Oc1ccc(/C=N/n2c(COc3ccccc3)n[nH]c2=S)c(O)c1 | inactive | –
41 | Cc1cc(NC(=O)c2cc(-c3ccc(Br)cc3)on2)nn1Cc1ccc(Cl)cc1 | inactive | –
42 | CSc1ccccc1OCc1cc(C(=O)N(C)C2CCCc3ccccc32)no1 (centres undefined) | inconclusive: 10 µM [activator, partial curve] | –
43 | Cn1cc(C(CO)Cc2ccccc2)c2ccccc21 (centres undefined) | inactive | –
44 | Cc1cc(-c2ccc(C)c(S(=O)(=O)N3CC(=O)Nc4ccccc43)c2)on1 | inactive | –

Row | Structure (SMILES) | Potency | growth rescue (activation)
45 | CC(C)(CC(=O)OCC(=O)Nc1ccccc1F)CC1=NS(=O)(=O)c2ccccc2N1 | inactive | –
46 | CC1(C)CC(=O)C(C(C2=C(O)CC(C)(C)CC2=O)c2ccco2)C(=O)C1 (centres undefined) | inconclusive: 44.7 µM [activator, single point] | –
47 | CC(=O)Nc1ccc(CN2C(=O)C(Cc3ccccc3)ON=C2c2cccc(F)c2)cc1 (centres undefined) | inconclusive: 31.6 µM [activator, single point] | –
48 | COc1ccc(-c2cn3c(C)c(C(=O)N4CCc5ccccc5C4)sc3n2)cc1 | inconclusive: 25.1 µM [activator, single point] | –
49 | CCn1c(CNC(=O)Cc2ccc(OC)cc2)nnc1SCC(=O)Nc1nccs1 | inconclusive: 11.2 µM [activator, single point] | –
50 | CCOC(=O)C1=C(CC)Nc2ccccc2N/C1=N\S(=O)(=O)c1ccc2ccccc2c1 | inconclusive: 39.8 µM [activator, single point] | –
51 | Cc1nc(NC(=O)c2ccccc2)sc1-c1cc(C(=O)N2CCOCC2)nn1Cc1ccccc1 | inactive | –
52 | CN(CCc1ccccc1)C(=O)c1ccc(NC(=O)Cc2cccc(NC(=O)C3CCN(C(=O)C4CC4)CC3)c2)cc1 | inconclusive: 50.1 µM [activator, single point] | –
53 | Cc1ccc(-c2csc3ncnc(-n4nnc5ccccc54)c23)cc1C | inactive | –
54 | COc1ccccc1[C@H]1C(c2cccc(Cl)c2)=NN(c2ccccc2)[C@@H]1CO | inconclusive: 25.1 µM [activator, single point] | –
55 | Cc1ccc(-n2c(SCC(=O)N/N=C/C=C\c3ccco3)nnc2-c2ccccc2)cc1 | inconclusive: 15.8 µM [activator, partial curve, poor fit] | –
56 | COc1ccc([C@@H]2[C@@H](C)N(c3ccccc3)c3ccccc3C(=O)N2Cc2ccccc2)cc1 | inconclusive: 8.91 µM [activator, partial curve] | –
57 | Cc1cc(C)cc(NC(=O)CSc2nnc(-c3ccc(S(=O)(=O)N4CCCC4)cc3)o2)c1 | inconclusive: 39.8 µM [activator, partial curve, poor fit] | –
58 | O=C(c1cccc(Cl)c1)N1c2ncnn2C2(CCCCC2)[C@@H]2CCCC[C@@H]21 | inactive | –
59 | COCCCn1c(CCC(=O)O)ccc1-c1ccc(F)cc1 | inconclusive: 4.47 µM [activator, full curve, poor fit] | –
60 | CC[C@@H](C)C(NC(=O)OC(C)(C)C)c1cn([C@@H](Cc2cc3ccccc3[nH]2)C(=O)N2CCN(C(=O)OC(C)(C)C)CC2)nn1 (some centres undefined) | active: 14.1 µM | –
61 | O=C(Nc1sc2c(c1-c1nc3ccccc3s1)CCNC2)C(F)F | inactive | –
62 | CCOCCCNC(=O)c1cn(CC)c2ccc(S(=O)(=O)N3CCC(C)CC3)cc2c1=O | inconclusive: 10 µM [activator, partial curve, poor fit] | –
63 | Cc1coc2c(C)c3oc(=O)c(CCC(=O)N4CCC(C(=O)NCCCC(=O)O)(c5ccccc5)CC4)c(C)c3cc12 | inconclusive: 31.6 µM [activator, partial curve, poor fit] | –
64 | COc1ccc(C2=Nc3ccc(OC(F)(F)F)cc3NC(c3cccnc3)=N2)cc1 | inactive | –

Reference: PubChem BioAssay AID1347120 (National Center for Advancing Translational Sciences (NCATS), 2019)
